The target in test [1] is human ALλ amyloid extract (SHI) (human). In words: cell-based or functional assay.
The target of test [2] is T1, human ATTRwt amyloid extract (125) (human, UniProt P02766). In words: cell-based or functional assay.
The target of test [3] is human ALκ amyloid extract (TAL) (human). As to the kind of experiment: cell-based or functional assay.
Test [4] concerns the target T2, human ALλ amyloid extract (SHI) (human).
T2 construct: Tissue extract of amyloid, not a pure protein; also called ALλ (SHI); ALA
As to the kind of experiment: plate binding to amyloid substrate, anti-human Fc and streptavidin-europium, time-resolved fluorescence.

Test [5] concerns the target T3, rVλ6Wil fibrils (synthetic amyloid-like fibrils of the recombinant λ6 variable domain protein Wil).
T3 construct: domain: λ6 variable domain; Fibrillar aggregate; pHrodo red-labelled in the phagocytosis assays; also called rVλWIL; synthetic fibrils
Described as above.

The target in test [6] is T1, human ATTRwt amyloid extract (125). The description is as above.
Test [7] deals with T4, human ATTRv amyloid extract (KEN) (human).
T4 construct: Tissue extract of amyloid, not a pure protein; also called ATTRv (KEN); KEN hATTR extract
The description is as above.

For test [8], the target named is T5, human ALκ amyloid extract (TAL) (human).
T5 construct: Tissue extract of amyloid, not a pure protein; also called ALκ (TAL); ALK
Described as above.

B1: Fcp5R CV1 (p5R peptide fused to the C-terminus of human IgG1 Fc via the short, rigid spacer VSPSV) (Fc fusion)
chain: APGGGSVS[… human IgG1 Fc …]VSPSVRAQRAQARQARQAQRAQRAQARQARQ
notes: Dimer of two identical Fc-spacer-p5R chains, made in CHO cells; biotinylated for the staining of tissue sections; also called hFc1CV1; Fc1CV1
As usually defined, the EC50 is the concentration giving half of the maximal effect. Consider B1, for which the “ex vivo phagocytosis of pHrodo red-labeled amyloid by PMA-activated THP-1 macrophages; concentration at which the effect saturates” value in test [1], in test [2] and in test [3] was roughly 60 nM throughout. Besides, the EC50 in test [4] was determined as 1.7 nM; in test [5], 0.5 nM; in test [6], 0.7 nM; in test [7], 1.8 nM; in test [8], 0.53 nM.

For the origin of these results see patent publication US20240216556A1 (UNIVERSITY OF TENNESSEE RESEARCH FOUNDATION, published 2024).
